From patent USRE49495E1, “Binding polypeptides having a mutated scaffold” (Affibody AB, priority 2013, dated 2023)

B1: PSI0257: recombinant control C5 binding polypeptide (protein)
chain: AEAKYAKEVLEAWDEIDRLPNLTIEQWLAFINKLDDDPSQSSELLSEAKKLNDSQAPKVDGS
modifications: Engineered C5 binding Z variant
B2: PSI0410: C5 binding polypeptide fused to albumin binding domain (protein)
chain: AEAKYAKEVLEAWDEIDRLPNLTIEQWLAFINKLDDDPSQSSELLSEAKKLNDSQAPKVEGSLAEAKEAANAELDSYGVSDFYKRLIDKAKTVEGVEALKDAILAALP
modifications: Engineered C5 binding Z variant
B3: PSI0378: C5 binding polypeptide fused to albumin binding domain; ND to SE in positions 52-53 (protein)
chain: B2 chain with N52S, D53E
modifications: Engineered C5 binding Z variant
B4: PSI0379: C5 binding polypeptide fused to albumin binding domain; ND to SE in positions 52-53 (protein)
chain: B2 chain with N52S, D53E, E60A
modifications: Engineered C5 binding Z variant
B5: PSI0403: C5 binding polypeptide fused to albumin binding domain; D to E in position 53 (protein)
chain: B2 chain with D53E
modifications: Engineered C5 binding Z variant
B6: PSI0404: C5 binding polypeptide fused to albumin binding domain; N to S in position 52 (protein)
chain: B2 chain with N52S
modifications: Engineered C5 binding Z variant
B7: PSI0334: modified C5 binding polypeptide fused to albumin binding domain; ND to SE in positions 52-53 (protein)
chain: B2 chain with N52S, D53E, E60D
modifications: Engineered C5 binding Z variant
B8: PSI0381: C5 binding polypeptide fused to albumin binding domain; ND to ES in positions 52-53 (protein)
chain: B2 chain with N52E, D53S
modifications: Engineered C5 binding Z variant
B9: PSI0242: known control C5 binding Z variant fused to albumin binding domain; positions 1-60 are Z06175a of WO2013/126006 (protein)
chain: B2 chain with E60D
modifications: Engineered C5 binding Z variant
B10: PSI0340: modified C5 binding polypeptide fused to albumin binding domain (protein)
chain: B2 chain with D35E, E60D
modifications: Engineered C5 binding Z variant
B11: PSI0369: modified C5 binding polypeptide fused to albumin binding domain (protein)
chain: AEAKYAKEVLEAWDEIDRLPNLTIEQWLAFINKLDDDPSQSSELLSEAKKLNDSQAPLAEAKEAANAELDSYGVSDFYKRLIDKAKTVEGVEALKDAILAALP
modifications: Engineered C5 binding Z variant
B12: PSI0335: modified C5 binding polypeptide fused to albumin binding domain (protein)
chain: B2 chain with E60D, E68V, A69L, A72R, S76K, D88N, D101L, A102H
modifications: Engineered C5 binding Z variant
B13: PSI0336: modified C5 binding polypeptide fused to albumin binding domain (protein)
chain: B2 chain with D14S, E60D
modifications: Engineered C5 binding Z variant
B14: PSI0337: modified C5 binding polypeptide fused to albumin binding domain (protein)
chain: B2 chain with D17E, E60D
modifications: Engineered C5 binding Z variant
B15: PSI0339: modified C5 binding polypeptide fused to albumin binding domain (protein)
chain: B2 chain with N32A, E60D
modifications: Engineered C5 binding Z variant
B16: PSI0332: modified C5 binding polypeptide fused to albumin binding domain (protein)
chain: B2 chain with D36R, D37Q, S39E, E60D
modifications: Engineered C5 binding Z variant

system: not listed separately; assay: Far UV circular dichroism, secondary structure content estimated with CDNN; format: physicochemical; settings: secondary structure content by CD, 0.17 mg/ml, Pi buffer pH 7.0
Protocol: The CD spectra were recorded by a J-720 CD spectropolarimeter (Jasco, Japan). The samples were diluted to 0.17 mg/ml protein concentration using Pi buffer (5 mM Na—K—PO4, pH 7.0). A CD spectrum of Pi buffer was firstly recorded, then spectra were recorded for each of the samples and lastly for the Pi buffer again. […] The buffer spectrum was smoothened using the Savitzky-Golay procedure with convolution width of 25. The other spectra were smoothened according to the same procedure with a convolution width of 15. The smoothened buffer spectrum was then subtracted from each of the other smoothened spectra. […] The integrity of the secondary structure content was compared to the recombinantly produced PSI0257 (SEQ ID NO:26).

**Q.** Which results are given for B1?
**A.** Antiparallel: 3%; Beta-Turn: 13%; Helix: 63%; Parallel: 3%; Rndm. Coil: 13%

biological target: T1, human C5 (Homo sapiens, UniProt P01031); assay: Inhibition of hemolysis of antibody sensitized sheep erythrocytes (classical complement pathway); format: cell-based; settings: not given
T1 construct: purchased

**Q.** With B2 as the molecule, how does the “function in the hemolysis assay” value read?
**A.** do not significantly differ from the reference compound PSI0242

**Q.** For B3, which “function in the hemolysis assay” value is on record?
**A.** do not significantly differ from the reference compound PSI0242

system: not listed separately; assay: Three month stability test at 37° C., RPC main peak; settings: not given

**Q.** With B3 as the molecule, how does the “stability after 3 months at 37° C. compared with PSI0242 after 2 weeks” value read?
**A.** higher proportion of protein in the original form

**Q.** With B4 as the molecule, how does the “3 months, 37° C. Main peak (% of total protein)” value (“3 months … (% of total protein)” for short) read?
**A.** 58%

same assay, conditions: RPC

**Q.** Which “3 months … (% of total protein)” value does the source give for B2 here?
**A.** 16%

**Q.** For B5, which “3 months … (% of total protein)” value is on record?
**A.** 35%

**Q.** For B6, which “3 months … (% of total protein)” value is on record?
**A.** 46%

**Q.** With B7 as the molecule, how does the “3 months … (% of total protein)” value read?
**A.** 16%

**Q.** With B3 as the molecule, how does the “3 months … (% of total protein)” value read?
**A.** 59%

**Q.** With B8 as the molecule, how does the “3 months … (% of total protein)” value read?
**A.** 46%

system: not listed separately; assay: Accelerated stability study of C5 binding polypeptides, 2 weeks at 37° C., SDS-PAGE and Reversed Phase HPLC (RPC); format: physicochemical; settings: not given

**Q.** Which “2 weeks, 37° C. Main peak (% of total protein)” value (“2 weeks … (% of total protein)” below) does the source give for B4 here?
**A.** 88%

same assay, conditions: RPC, after 2 weeks at 37° C., 25 mM NaP/125 mM NaCl pH 7.0

**Q.** With B9 as the molecule, how does the “Main peak (% of total protein)” value read?
**A.** 57%

**Q.** With B2 as the molecule, how does the “Main peak (% of total protein)” value read?
**A.** 72%

**Q.** For B5, which “Main peak (% of total protein)” value is on record?
**A.** 77%

**Q.** With B6 as the molecule, how does the “Main peak (% of total protein)” value read?
**A.** 88%

**Q.** With B7 as the molecule, how does the “Main peak (% of total protein)” value read?
**A.** 73%

**Q.** Which “Main peak (% of total protein)” value does the source give for B10 here?
**A.** 67%

**Q.** With B11 as the molecule, how does the “Main peak (% of total protein)” value read?
**A.** 90%

**Q.** With B3 as the molecule, how does the “Main peak (% of total protein)” value read?
**A.** 89%

**Q.** Which “Main peak (% of total protein)” value does the source give for B8 here?
**A.** 87%

**Q.** For B12, which “Main peak (% of total protein)” value is on record?
**A.** 57%

**Q.** With B13 as the molecule, how does the “Main peak (% of total protein)” value read?
**A.** 57%

**Q.** Which “Main peak (% of total protein)” value does the source give for B14 here?
**A.** 57%

**Q.** Which “Main peak (% of total protein)” value does the source give for B15 here?
**A.** 57%

**Q.** With B16 as the molecule, how does the “Main peak (% of total protein)” value read?
**A.** 57%

same assay, conditions: RPC; data from Example 2 repeated in Table 8

**Q.** Which “2 weeks … (% of total protein)” value does the source give for B2 here?
**A.** 72%

**Q.** For B5, which “2 weeks … (% of total protein)” value is on record?
**A.** 77%

**Q.** For B6, which “2 weeks … (% of total protein)” value is on record?
**A.** 88%

**Q.** For B7, which “2 weeks … (% of total protein)” value is on record?
**A.** 73%

**Q.** Which “2 weeks … (% of total protein)” value does the source give for B3 here?
**A.** 89%

**Q.** For B8, which “2 weeks … (% of total protein)” value is on record?
**A.** 87%

same assay, conditions: conclusion from Table 1, 2 weeks at 37° C.

**Q.** Which “stability when compared with PSI0242” value does the source give for B2 here?
**A.** increased stability

**Q.** With B5 as the molecule, how does the “stability when compared with PSI0242” value read?
**A.** increased stability

**Q.** Which “stability when compared with PSI0242” value does the source give for B6 here?
**A.** increased stability

**Q.** Which “stability when compared with PSI0242” value does the source give for B7 here?
**A.** increased stability

**Q.** For B10, which “stability when compared with PSI0242” value is on record?
**A.** increased stability

**Q.** With B11 as the molecule, how does the “stability when compared with PSI0242” value read?
**A.** increased stability

**Q.** For B3, which “stability when compared with PSI0242” value is on record?
**A.** increased stability

**Q.** Which “stability when compared with PSI0242” value does the source give for B8 here?
**A.** increased stability

same assay, conditions: pH 7

**Q.** Which “Main peak (% of total protein)” value does the source give for B4 here?
**A.** 88%

Substitutions are numbered along the chain they refer to.
